For 32 compounds, IC50 results are on record in US9763922B2 (priority 2014, dated 2017).

As usually defined, the IC50 is the concentration that inhibits the measured activity by half.

The subject of this assay is MYC. In words: cells. The conditions noted are these: Homo sapiens, MV4-11, 4 h, read-out: Myc IC50 (μM).

Regarding `CC(=O)N1CCc2c(c(N3CCCc4cc(-c5cnn(C)c5)c(C(F)F)cc43)nn2[C@@H]2CCNC(=O)C2)C1` (single isomer, unassigned) [Example 343], the IC50 was 0.285 µM.
Take `CC(=O)N1CCc2c(c(N3CCCc4cc(-c5cnn(C)c5)c(C(F)F)cc43)nn2[C@H]2CCNC(=O)C2)C1` (single isomer, unassigned) [Example 344]: the IC50 stood at 0.009 µM.
As to `CC(=O)N1CCc2c(c(N3C[C@H](C)Cc4cc(-c5cnn(C)c5)c(C#N)cc43)nn2C2CCOCC2)C1` (single isomer, unassigned) [Example 356], the IC50 turned out to be 0.049 µM.
Under `CNC(=O)N1CCc2c(c(N3CC[C@@H](C)c4cc(-c5cnn(C)c5)c(C(F)F)cc43)nn2C2CCOCC2)C1` (single isomer, unassigned) [Example 358] stands 0.01 µM; under `CNC(=O)N1CCc2c(c(N3CC[C@H](C)c4cc(-c5cnn(C)c5)c(C(F)F)cc43)nn2C2CCOCC2)C1` (single isomer, unassigned) [Example 359], 0.019 µM.
Consider `CC(=O)N1CCc2c(c(N3CCCc4cc(-c5cnn(C)c5)c(C(F)F)cc43)nn2[C@H]2CCCOCC2)C1` (single isomer, unassigned) [Example 373], for which the IC50 came to 0.023 µM.
Under `CC(=O)N1CCc2c(c(N3CCCc4cc(-c5cnn(C)c5)c(C(F)F)cc43)nn2[C@@H]2CCCOCC2)C1` (single isomer, unassigned) [Example 374] stands 0.01 µM; under `CC(=O)N1CCc2c(c(N3CC(CO)Cc4cc(-c5cnn(C)c5)ccc43)nn2[C@H]2CCOC2)C1` (stereo in doubt) [Example 86, 1-[3-[3-(hydroxymethyl)-6-(1-methylpyrazol-4-yl)-3,4-dihydro-2H-quinolin-1-yl]-1-tetrahydrofuran-3-yl-6,7-dihydro-4H-pyrazolo[4,3-c]pyridin-5-yl]ethanone], 6.1 µM; under `COCC1Cc2cc(-c3cnn(C)c3)ccc2N(c2nn([C@H]3CCOC3)c3c2CN(C(C)=O)CC3)C1` (stereo in doubt) [Example 92, 1-[3-[3-(methoxymethyl)-6-(1-methylpyrazol-4-yl)-3,4-dihydro-2H-quinolin-1-yl]-1-tetrahydrofuran-3-yl-6,7-dihydro-4H-pyrazolo[4,3-c]pyridin-5-yl]ethanone], 0.937 µM.
Under `CCC1Cc2cc(-c3cnn(C)c3)ccc2N(c2nn([C@H]3CCOC3)c3c2CN(C(C)=O)CC3)C1` (stereo in doubt) [Example 99, 1-[3-[3-ethyl-6-(1-methylpyrazol-4-yl)-3,4-dihydro-2H-quinolin-1-yl]-1-tetrahydrofuran-3-yl-6,7-dihydro-4H-pyrazolo[4,3-c]pyridin-5-yl]ethanone] stands 5.65 µM; under `CC(=O)N1CCc2c(c(N3CCC(C)c4cc(-c5cnn(C)c5)c(C#N)cc43)nn2[C@H]2CCOC2)C1` (stereo in doubt) [Example 103, 1-(5-acetyl-1-tetrahydrofuran-3-yl-6,7-dihydro-4H-pyrazolo[4,3-c]pyridin-3-yl)-4-methyl-6-(1-methylpyrazol-4-yl)-3,4-dihydro-2H-quinoline-7-carbonitrile], 0.224 µM.
Under `CC(=O)N1CCc2c(c(N3CCC(C)c4cc(-c5cnn(C)c5)ccc43)nn2[C@H]2CCOC2)C1` (stereo in doubt) [Example 106, 1-[3-[4-methyl-6-(1-methylpyrazol-4-yl)-3,4-dihydro-2H-quinolin-1-yl]-1-tetrahydrofuran-3-yl-6,7-dihydro-4H-pyrazolo[4,3-c]pyridin-5-yl]ethanone] stands 2.15 µM; under `CC(=O)N1CCc2c(c(N3CCCc4cc(-c5ccc(C)nc5)ccc43)nn2C2COC2)C1` [Example 6, 1-[3-[6-(6-methyl-3-pyridyl)-3,4-dihydro-2H-quinolin-1-yl]-1-(oxetan-3-yl)-6,7-dihydro-4H-pyrazolo[4,3-c]pyridin-5-yl]ethanone], 0.375 µM; under `CC(=O)N1CCc2c(c(Nc3cc(C(=O)NC(C)C)cc(-c4cnn(C)c4)c3)nn2C)C1` [Example 17, 3-[(5-acetyl-1-methyl-6,7-dihydro-4H-pyrazolo[4,3-c]pyridin-3-yl)amino]-N-isopropyl-5-(1-methylpyrazol-4-yl)benzamide], 0.29 µM.
Consider `CC(=O)N1CCc2c(c(Nc3cc(C)cc(C(=O)NC(C)C)c3)nn2C)C1` [Example 18, 3-[(5-acetyl-1-methyl-6,7-dihydro-4H-pyrazolo[4,3-c]pyridin-3-yl)amino]-N-isopropyl-5-methyl-benzamide], for which the IC50 amounted to 0.73 µM.
In the case of `CC(=O)N1CCc2c(c(Nc3cc(C#N)cc(-c4cnn(C)c4)c3)nn2C)C1` [Example 20, 3-[(5-acetyl-1-methyl-6,7-dihydro-4H-pyrazolo[4,3-c]pyridin-3-yl)amino]-5-(1-methylpyrazol-4-yl)benzonitrile], the IC50 stood at 0.33 µM.
The figure for `CC(=O)N1CCc2c(c(Nc3ccc(-c4cn(C)nc4C(F)(F)F)cc3F)nn2C)C1` [Example 34, 1-[3-[2-fluoro-4-[1-methyl-3-(trifluoromethyl)pyrazol-4-yl]anilino]-1-methyl-6,7-dihydro-4H-pyrazolo[4,3-c]pyridin-5-yl]ethanone] is 0.6 µM.
Regarding `CC(=O)N1CCc2c(c(N3CCCc4cc(-c5cc(C)n(C)n5)ccc43)nn2C2COC2)C1` [Example 35, 1-[3-[6-(1,5-dimethylpyrazol-3-yl)-3,4-dihydro-2H-quinolin-1-yl]-1-(oxetan-3-yl)-6,7-dihydro-4H-pyrazolo[4,3-c]pyridin-5-yl]ethanone], the IC50 was 0.202 µM.
Under `CC(=O)N1CCc2c(c(Nc3ccc(-c4cn(C)nc4C(F)(F)F)nc3)nn2C)C1` [Example 36, 1-(1-methyl-3-((6-(1-methyl-3-(trifluoromethyl)-1H-pyrazol-4-yl)pyridin-3-yl)amino)-6,7-dihydro-1H-pyrazolo[4,3-c]pyridin-5(4H)-yl)ethanone] stands 0.39 µM; under `CC(=O)N1CCc2c(c(Nc3cccc(-c4cnn(C)c4)c3F)nn2CC2CC2)C1` [Example 37, 1-[1-(cyclopropylmethyl)-3-[2-fluoro-3-(1-methylpyrazol-4-yl)anilino]-6,7-dihydro-4H-pyrazolo[4,3-c]pyridin-5-yl]ethanone], 0.46 µM; under `CC(=O)N1CCc2c(c(Nc3cccc(-c4cnn(C)c4)c3C#N)nn2CC2CC2)C1` [Example 41, 2-[[5-acetyl-1-(cyclopropylmethyl)-6,7-dihydro-4H-pyrazolo[4,3-c]pyridin-3-yl]amino]-6-(1-methylpyrazol-4-yl)benzonitrile], 0.49 µM.
As for `CNC(=O)c1ccc(-c2ccc3c(c2)CCCN3c2nn([C@H]3CCOC3)c3c2CN(C(C)=O)CC3)cn1` [Example 46, 5-[1-[5-acetyl-1-[(3S)-tetrahydrofuran-3-yl]-6,7-dihydro-4H-pyrazolo[4,3-c]pyridin-3-yl]-3,4-dihydro-2H-quinolin-6-yl]-N-methyl-pyridine-2-carboxamide], the IC50 worked out at 1.53 µM.
Turning to `CC(=O)N1CCc2c(c(Nc3cccc(-c4cnn(C)c4)c3F)nn2C2CCOC2)C1` (centres unmarked) [Example 50, 1-[3-[2-fluoro-3-(1-methylpyrazol-4-yl)anilino]-1-tetrahydrofuran-3-yl-6,7-dihydro-4H-pyrazolo[4,3-c]pyridin-5-yl]ethanone], the IC50 was determined as 0.65 µM.
Consider `CCOc1ccc(-c2ccc3c(c2)CCCN3c2nn([C@H]3CCOC3)c3c2CN(C(C)=O)CC3)cn1` [Example 51, 1-[3-[6-(6-ethoxy-3-pyridyl)-3,4-dihydro-2H-quinolin-1-yl]-1-[(3S)-tetrahydrofuran-3-yl]-6,7-dihydro-4H-pyrazolo[4,3-c]pyridin-5-yl]ethanone], for which the IC50 came out at 0.729 µM.
Under `CC(=O)N1CCc2c(c(N3CCCc4cc(-c5cn(C)nc5C#N)ccc43)nn2[C@H]2CCOC2)C1` [Example 52, 4-[1-[5-acetyl-1-[(3S)-tetrahydrofuran-3-yl]-6,7-dihydro-4H-pyrazolo[4,3-c]pyridin-3-yl]-3,4-dihydro-2H-quinolin-6-yl]-1-methyl-pyrazole-3-carbonitrile] stands 3.28 µM; under `CC(=O)N1CCc2c(c(Nc3cccc(-c4cnn(C)c4)c3F)nn2CC(F)(F)F)C1` [Example 58, 1-(3-((2-fluoro-3-(1-methyl-1H-pyrazol-4-yl)phenyl)amino)-1-(2,2,2-trifluoroethyl)-6,7-dihydro-1H-pyrazolo[4,3-c]pyridin-5(4H)-yl)ethanone], 0.7 µM.
In the case of `COc1cc(-c2ccc3c(c2)CCCN3c2nn(C3CCOCC3)c3c2CN(C(C)=O)CC3)ccn1` [Example 60, 1-[3-[6-(2-methoxy-4-pyridyl)-3,4-dihydro-2H-quinolin-1-yl]-1-tetrahydropyran-4-yl-6,7-dihydro-4H-pyrazolo[4,3-c]pyridin-5-yl]ethanone], the IC50 was determined as 0.089 µM.
Under `CC(=O)N1CCc2c(c(Nc3cccc(Br)c3)nn2CC2CC2)C1` [Example 61, 1-(3-((3-bromophenyl)amino)-1-(cyclopropylmethyl)-6,7-dihydro-1H-pyrazolo[4,3-c]pyridin-5(4H)-yl)ethanone] stands 0.59 µM; under `CC(=O)N1CCc2c(c(N3CCCc4cc(-c5cnn(C)c5)ccc43)nn2C)C1` [Example 65, 1-[1-methyl-3-[6-(1-methylpyrazol-4-yl)-3,4-dihydro-2H-quinolin-1-yl]-6,7-dihydro-4H-pyrazolo[4,3-c]pyridin-5-yl]ethanone], 0.401 µM; under `CC(=O)N1CCc2c(c(N3CCCc4cc(-c5cnn(C)c5)ccc43)nn2C2CCCCO2)C1` (centres unmarked) [Example 72, 1-[3-[6-(1-methylpyrazol-4-yl)-3,4-dihydro-2H-quinolin-1-yl]-1-tetrahydropyran-2-yl-6,7-dihydro-4H-pyrazolo[4,3-c]pyridin-5-yl]ethanone], 0.681 µM.
The figure for `CC(=O)N1CCc2c(c(N3CCCc4cc(-c5cnn(C)c5)ccc43)nn2C2CCCO2)C1` (centres unmarked) [Example 73, 1-[3-[6-(1-methylpyrazol-4-yl)-3,4-dihydro-2H-quinolin-1-yl]-1-tetrahydrofuran-2-yl-6,7-dihydro-4H-pyrazolo[4,3-c]pyridin-5-yl]ethanone] is 1.57 µM; for `CC(=O)N1CCc2c(c(N3CCCc4cc(-c5cnn(C)c5)ccc43)nn2C2CCNC(=O)C2)C1` (centres unmarked) [Example 76, 4-(5-acetyl-3-(6-(1-methyl-1H-pyrazol-4-yl)-3,4-dihydroquinolin-1(2H)-yl)-4,5,6,7-tetrahydro-1H-pyrazolo[4,3-c]pyridin-1-yl)piperidin-2-one] it is 0.652 µM.
